# According to the RNAGym collection of RNA variant scans (doi:10.7554/elife.90254):
# Read counts are not given, so values of variants with three or more changes are uncertain.
# B1: OR4K15 (parent)
# chain: GUUAACGGUCAUAGGCCAUGGAAACUAGGAGCACCAUUUCGCUGCCAGUGAAGAAAUGAACAAAGAAAAUCUGGGCCAGGCAGGCAUCAAAAGAAAUAGUCUUGCGCUCAACCAGAAAGUCUGUAAUCAUUUUAAGGGUA
# Variants of: B1
# Assay: self-cleavage, relative activity (ratio to wild type); higher = more cleavage; in vitro, sequencing; the parent is a self-cleaving ribozyme
row,Variant,self-cleavage
1,A11C A22U A47U A52G U102A,0.37
2,U9C C32A A118G,0.15
3,C10U A36U U122C G138A,0.64
4,C10U U38C U72C,0.09
5,A11G A24U U108C,0.02
6,A11G A24G A27G A117G,1.4
7,C10U A30U A52G U57G U102A U133C,0.8
8,A11G U39A A92G,0.21
9,U9C U43C A114U A129G,0.05
10,A11G A23G A60G,1.03
11,A11G A23G U39C A118G,0.26
12,U9C G44A G73U,0.21
13,U9C U102C A111U,0.19
14,A11G A55G A94G A95G U120C G138A,1.99
15,A11G U19A A78G U122C,0.22
16,A11C U19A A78G,0.52
17,A11G A22G A51G A55G A60G A63G A94G C128U,0.78
18,A11G A62G A117G U122A,2.05
19,A11G A78U U133A,0.2
20,A11C U39C U49C A94G A116G,0.28
21,A11G A23G A33C U97C,0.29

row,Variant,self-cleavage
1,U9C C32U U49A A59G,1.56
2,U9C U39C A111G,0.04
3,U9C C10U A67G A68G C101U U130C A135G,0.76
4,U9G A22G U38A A64G U127C,0.83
5,C10U U43A U122C U131C A135U,0.37
6,U9C U12A C42G A59G,1.39
7,A11G A51G A54G,1.37
8,U9C U19A U37A,0.7
9,U9C A95G A96G A110G,0.26
10,U9C U100C U132C,1.73
11,U9C U38C A63G U108C A140C,0.02
12,A11G A54G U108A,0.04
13,U9G U72C A134G,0.2
14,U9C U57C A62G A78U,0.3
15,A11G A30G U37C A51U U130C,0.71
16,U9C C17U U37C A54U,1.14
17,A11G A62U U97A U132A U139A,1.11
18,A11G A66G U139C,1.78
19,A11G A56G U103C A125G,0.21
20,U9C G58A A91G,1.1
21,A11G A27G U120C,0

row,Variant,self-cleavage
1,A11G G50A A59G,0.68
2,U9C U19C A23G A68G,0.77
3,A11G G75C A94G,0.24
4,A11G A36G A54G A111G,0.06
5,U9C U19G A47G A98G,0.34
6,U9C U100A A126G,0.37
7,U9C A116U U124C,0.17
8,A11G A62G U72A G136A,0.19
9,U9C C16U A63G,1.59
10,U9C U120C U131C,0.45
11,A11G A59G A69U U72A U102C A110U,0.37
12,A11G A78G A111U A117U,0.01
13,U9C U72C U102C,0.38
14,A11G A30G G74A A111G,0.03
15,A11G A51G A92G U130C,0.63
16,A11G C32U U108A A111C,0.02
17,U9G A36U U124C,0.88
18,U9C U39A A59G A89U,2.01
19,U9C U12C U43G A52G A67G A78U,1.05
20,U9G C76A U103A,0.1
21,A11G A33G U39C,0.53

row,Variant,self-cleavage
1,A11C A18U A60G U97A U108C,0
2,U9C U102C U103C,0.08
3,C10U U37C A68U,1.29
4,A11G A27G A59G A114U U120C,0.03
5,A11C U97C U122C,0.09
6,A11G A66G C76U A125C,0.36
7,A11G A23G A67G U124C,0.47
8,A11G A22G U57C,1.53
9,A11C U26C U37C U39C A92G A95G,1.94
10,A11G A54G A111G,0.01
11,A11G A33G U120C,0.36
12,C10U A36U A52G A56G A94G U127A,1.23
13,A11G G31A A116U,0.43
14,U9G A47G A66G,0.92
15,A11G G58U A116G U131C,0.29
16,A11G A95G A98G U130C,0.68
17,A11G A68G U139A,0.84
18,U9C U38C C85U A110C U132G,0.36
19,A11C A47G U72A A111U,0.01
20,A11G A18G C85U U103C,0.21
